Among all 73,000 compounds or so, about 1,800 (2.5%) were called active. This list was built around the results that the source calls inconclusive (neither active nor inactive); the mix of calls is not that of the screen. Calls follow the shape of the dose curve; as a rule, active = well fitted activation curve with a large enough effect; inconclusive = small, poorly fitted or top-dose-only effect; inactive = no such curve, though single readings can be large or run the other way. Potencies of inconclusive entries are left out as doubtful fits.
test: qHTS Assay for Agonists of the Thyroid Stimulating Hormone Receptor: Activators of Intracellular cAMP Concentrations in Parental HEK 293; settings: parental HEK293 CNG cAMP sensor, membrane potential fluorescence; activation: at 57.1 µM (top of the series) unless noted; also: nearly all actives have a fitted effect of over 55% in size; as to activation: % of control where 0% means no effect
In short: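 Parental HEK 293 cells stably expressing a cAMP-gated CNG channel were loaded with membrane potential dye containing 100 uM RO 20-1724 for 60 min. Compound added for 30 min; depolarization read as fluorescence intensity at 590 nm.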
Potency is read from the fitted curve at half-maximal effect; tags tell the direction and shape of the fitted curve.

Row | SMILES | Potency | activation
1 | Cc1ccc(CCNC(=O)c2coc3nc4ccccc4nc23)cc1 | active: 20 µM | 
2 | CN(C)c1cccc(C(=O)NCC2CCCO2)c1 (centres undefined) | inconclusive [activator, single point] | 
3 | O=C1CSC2=NCN(c3ccc4c(c3)OCO4)CN12 |  | inactive: -8.95% [at 11.4 µM]
4 | Cn1cccc1C(=O)N1CCC2(CCCN(c3ccccn3)C2)CC1 | inconclusive [activator, partial curve] | 
5 | COc1ccc(Oc2ncc3nc(CCc4ccccc4)c(=O)n(CCC#N)c3n2)cc1 | inconclusive [activator, partial curve] | 
6 | O=C(CCN1CCN(c2ccc(Cl)cc2)CC1)Nc1ccccc1F | active: 25.1 µM | 
7 | COC(=O)[C@@]1(Cc2ccc(OC)cc2)[C@H]2c3cc(C(=O)N4CCCC4)n(Cc4nc5ccccc5[nH]4)c3C[C@H]2CN1C(=O)c1ccccc1 | inconclusive [activator, full curve, poor fit] | 
8 | CC(C)Cn1c(SCC(=O)NC(=O)NC2CCCC2)nc2ccccc21 | active: 31.6 µM | 
9 | CC1CCCC(C)N1C(=O)Cn1c(SCC(=O)Nc2ccc3c(c2)OCO3)nc2ccccc21 (centres undefined) | inconclusive [activator, partial curve] | 
10 | CCC(c1nnnn1Cc1ccco1)N(Cc1cc2cc(C)cc(C)c2[nH]c1=O)CC1CCCO1 (centres undefined) | active: 20 µM | 
11 | O=c1cc(-c2ccccc2)c2ccccc2[nH]1 | inactive | 
12 | CCOC(=O)C(C(=O)OCC)=C1OC(=O)c2ccccc21 | inactive | 
13 | COc1ccc(N/C(C)=C2/C(=O)C(=O)N(CCO)C2c2ccc(Br)cc2)cc1 (centres undefined) | inconclusive [activator, partial curve] | 
14 | CN(C)S(=O)(=O)Nc1ccccn1 | inconclusive [activator, single point] | 
15 | O=C(Cc1cn2ccsc2n1)NCCc1ccc(F)cc1 | inconclusive [activator, single point] | 
16 | O=C(Nc1cccc2ccccc12)c1ccc(Br)o1 | inconclusive [activator, partial curve] | 
17 | CCCCOCCCNC(=O)c1ccccc1OCC | inconclusive [activator, full curve, poor fit] | 
18 | COC(=O)[C@@]1(Cc2ccc(F)cc2)[C@H]2c3cc(C(=O)N(C)C)n(Cc4c(CO)[nH]cc(C)c4=O)c3C[C@H]2CN1C(=O)c1ccccc1 | inactive | 
19 | N[C@@H](CO)C(=O)NNCc1ccc(O)c(O)c1O | inactive | 
20 | Cc1ccc(C(=O)Nc2ncc(Cc3ccc(F)cc3)s2)o1 | inactive | 
21 | Fc1ccc(-n2c(Cc3ccccc3)nnc2SCc2nc(-c3cccs3)no2)cc1 | active: 25.1 µM | 
22 | CC1(C)Cc2ccccc2C2CC(O)C(=O)N21 (centres undefined) | inconclusive [activator, single point] | 
23 | Cc1ccc(NC(=O)c2cc(-c3ccc(C)o3)nc3ccccc23)nc1 | inconclusive [activator, full curve, poor fit] | 

Row | SMILES | Potency | activation
24 | O=C(c1ccncc1)c1nccn1-c1ccccn1 | inconclusive [activator, single point] | 
25 | COCc1[nH]nc2c1C(c1ccsc1)C(C#N)=C(N)O2 (centres undefined) | inactive | 
26 | CC(=O)Nc1ccc(NC(=O)c2ccccc2N(C)S(C)(=O)=O)cc1 | inconclusive [activator, single point] | 
27 | Cc1nc2ccccc2c(=O)n1NS(C)(=O)=O | inactive | 
28 | c1csc(CNc2ncnc3sccc23)c1 | inconclusive [activator, full curve] | 
29 | CCOC(=O)C1=C(CNCc2ccccc2Cl)NC(=O)NC1c1ccc2c(c1)OCO2 (centres undefined) | inconclusive [activator, single point] | 
30 | CC(C)(C)NC(=O)C(c1cccs1)N(CC1CCCO1)C(=O)Cn1nnc(-c2cccs2)n1 (centres undefined) | inactive | 
31 | CCOC(=O)c1sc(NC(=O)CSc2nnc(-c3ccco3)n2CC)c(C(=O)OCC)c1C | inconclusive [activator, partial curve] | 
32 | O=S(=O)(NCC1CC1)c1cccc(S(=O)(=O)N2CCCC2)c1 | inactive | 
33 | CCN1C(=O)/C(=C\N2CCCCCC2)SC1=S | inconclusive [activator, single point] | 
34 | O=C(NC(Cc1ccccc1)C(=O)O)OCc1ccccc1 (centres undefined) | inconclusive [activator, partial curve] | 
35 | Cc1ccc(NC(=O)C2CCN(S(=O)(=O)c3cccc4nonc34)CC2)nc1 | inconclusive [activator, single point] | 
36 | CCOc1nc(OCC)nc(-n2cc(-c3ccccc3)nn2)n1 | inconclusive [activator, partial curve] | 
37 | N#Cc1cc2[nH]c(=O)c(=O)[nH]c2cc1[N+](=O)[O-] | inactive | 
38 | Cc1ccn2cc(CNC(=O)c3ccc(Br)o3)nc2c1 | inconclusive [activator, single point] | 
39 | Cn1c(=O)[nH]c(=O)c2c1nc(Br)n2CCCSc1nc2ccccc2o1 | inconclusive [activator, single point] | 
40 | CN=C(NC#N)NCCSC[C@H]1N=CN=C1C | inconclusive [activator, single point] | 
41 | CCc1ccccc1NC(=O)CSc1nnc([C@@H](NC(=O)OC(C)(C)C)C(C)C)o1 | inconclusive [activator, full curve] | 
42 | c1ccc(OCCCn2nnc(-c3ccncc3)n2)cc1 | inconclusive [activator, single point] | 
43 | CCCn1c(-c2ccc(F)cc2)nc2c(NCCCCN3CCCC3)nc(C)nc21 | inconclusive [activator, partial curve] | 
44 | Cc1nn2c(N)csc2nc1=O | inconclusive [activator, single point] | 
45 | COCC(=O)N1CCC[C@@]2(CCN(Cc3cc(C(F)(F)F)cc(C(F)(F)F)c3)C2)C1 | inconclusive [activator, full curve] | 
46 | c1ccc(CNc2ncnc3ccccc23)cc1 | inconclusive [activator, full curve] | 

Row | SMILES | Potency | activation
47 | CCc1nnc(NC(=O)CSc2nnc(Cc3ccccc3)n2-c2ccccc2)s1 | inconclusive [activator, single point] | 
48 | CC1(C)[C@@H]2CC[C@@]1(CS(=O)(=O)Nc1ccccc1)C(=O)C2 |  | inactive: -6.98% [at 11.4 µM]
49 | CCOc1ccccc1C(=O)Nc1nccs1 | inactive | 
50 | O=c1c2ccccc2nc(SCc2ccccc2)n1Cc1ccco1 | inconclusive [activator, single point] | 
51 | CCC(=O)N1CCCc2cc(S(=O)(=O)N3CCCc4ccccc43)ccc21 | inconclusive [activator, single point] | 
52 | Cc1cccc(C)c1NC(=O)CCCSc1nnc(-c2ccco2)n1-c1ccccc1 | active: 20 µM | 
53 | CCN(C(=O)c1ccco1)c1nc(CC(=O)Nc2ccc(Cl)cc2)cs1 | inconclusive [activator, single point] | 
54 | CC(C)[C@@H](CC(=O)N[C@@H]1CCCC[C@H]1C(=O)N[C@H](CC(=O)N[C@@H](CCC(=O)O)CC(=O)O)Cc1ccccc1)NC(=O)C[C@H](Cc1ccccc1)NC(=O)[C@@H]1CCCC[C@H]1N | inactive | 
55 | CC(Oc1ccc(NC(=O)c2ccco2)cc1)C(=O)N1c2ccccc2CC1C (centres undefined) | inconclusive [activator, single point] | 
56 | CS(=O)(=O)Nc1ccc(C(=O)NCCc2ccccc2)cc1 | inconclusive [activator, single point] | 
57 | COc1cc(OC)cc(OCC(O)Cn2ccnc2)c1 (centres undefined) | inactive | 
58 | Cc1ccc(S(=O)(=O)NCCCCC(NC(=O)OC(C)(C)C)C(=O)O)cc1 (centres undefined) (tested in a mixture with another compound) | inconclusive [activator, single point] | 
59 | CCOc1ccc2[nH]c(=O)c(C(c3nnnn3Cc3ccco3)N3CCC(C)CC3)cc2c1 (centres undefined) | active: 31.6 µM | 
60 | O=[N+]([O-])c1ccc2c(N=Nc3ccc4ccccc4c3O)c(O)cc(S(=O)(=O)O)c2c1 | inconclusive [activator, single point] | 
61 | Cc1cccc(-n2ncc3c(Nc4c(C)n(C)n(-c5ccccc5)c4=O)ncnc32)c1 | inconclusive [activator, single point] | 
62 | CC(C)C(c1nnnn1C1CCCC1)N1c2ccccc2CC1C (centres undefined) | inactive | 
63 | CCCCSc1nc2c(cnn2-c2ccc(Cl)cc2)c(=O)[nH]1 | inconclusive [activator, full curve, poor fit] | 
64 | S=C(S)O[C@@H]1C[C@@H]2C[C@H]1[C@@H]1CCC[C@H]21 | inconclusive [activator, partial curve, poor fit] | 
65 | Cc1ccc(-c2nn3c(C)nnc3s2)cc1NC(=O)C(C)C | inconclusive [activator, single point] | 
66 | COc1ccc(-c2nnc(SCC(=O)NC3CCCCC3)o2)cc1OC | inconclusive [activator, partial curve] | 
67 | COC(=O)C1CC1C(NC(=O)[C@H]1CCCCN1)c1ccccc1 (some centres undefined) | inconclusive [activator, partial curve] | 
68 | COCCn1c(=O)c(-c2ccc(OC)cc2)nc2cnc(OC)nc21 | inactive | 
69 | COc1ccc(OC)c(N(CC(=O)Nc2ccc3c(c2)OCO3)S(=O)(=O)c2ccccc2)c1 | inconclusive [activator, single point] | 

Source: PubChem BioAssay AID938 (National Center for Advancing Translational Sciences (NCATS), 2007)
